Test results reported in ChEMBL document CHEMBL4888484, “Replenishing the malaria drug discovery pipeline: Screening and hit evaluation of the MMV Hit Generation Library 1 (HGL1) against asexual blood stage Plasmodium falciparum ,using a nano luciferase reporter read-out” (2022).
The campaign covered roughly 150,000 compounds. About 540 (0.36%) showed an effect of 50% or more. Some of the results follow.

System: Plasmodium falciparum
Assay: Primary screen in NF54 nanoGlo assay, in single point, at 2uM, 72h; a lower Z score goes with more inhibition
Format: functional, Erythrocyte
Conditions: timepoint 72 hour

Structure (SMILES) | % Inhibition | Z score
CCc1cc(NC(=O)Cc2c(C)nn(C)c2C)nc(C)n1 | 6% | -1.2
CCN1CCN(C(=O)C[C@H](CCc2ccccc2)c2c[nH]c3ccc(OC)cc23)CC1 | -4% | 0.55
CC(C)n1cc2cc(C(=O)NCCc3ccccn3)sc2c1 | -8% | 0.98
CC(=O)N1CCc2sc(S(N)(=O)=O)cc2C1 | -11% | 1.57
Cc1cscc1NC(=O)N1C2CCC1COC2 | 7% | -1.05
CCc1nn(C)c(NC(=O)C[C@H]2C(=O)NCCN2CC)c1CC | 8% | -0.76
COC1CN(C(=O)C(C)C(=O)OC(C)(C)C)CCC1C (configuration not stated) | 8% | -1.55
Cc1cccc(NC2CCN(C3Cc4ccccc4C3O)CC2)n1 (configuration not stated) | -2% | 0.24
O=S(=O)(c1ccc(Cl)cc1Cl)N(CCO)CCO | -5% | 0.97
O=C(Nc1cnns1)N[C@H]1CCCN(Cc2ccccc2)C1 | -5% | 0.68
CC(C)n1nccc1NC(=O)c1cc(-c2ccccc2)nc2ccccc12 | -13% | 2.62
CCOC(=O)N1CCC(N2C(=O)[C@@H]3CCCN3C2=O)CC1 | -13% | 1.69
O=c1cc(CN2CCN(c3ccccc3)CC2)nc(-c2cccnc2)[nH]1 | -3% | 0.48
CC(C)(NCc1cccc2c1OCO2)c1ccc(Cl)c(Cl)c1 | -1% | 0.13
CCN(Cc1nnc(-c2ccccc2)o1)S(=O)(=O)c1cn(C(F)F)nc1C | 3% | -0.47
FC(F)(F)C1CC(NCc2ccc3c(c2)OCCO3)C1 (configuration not stated) | 3% | -0.37
CCc1noc(CN(CC)c2cc([C@H]3CCOC3)nc(N3CC(O)C3)n2)n1 | 9% | -1.24
Cc1cnc(CN(C)Cc2cccnc2)cn1 | -4% | 0.77
Cc1ccc(NC(=O)Cn2c(C)cc(C)c(-c3nc(-c4ccc(F)cc4)no3)c2=O)c(C)c1 | -6% | 1.13

Structure (SMILES) | % Inhibition | Z score
Cc1ccc(S(=O)(=O)NCCn2c3ccccc3c3c(C)cc(C)nc32)cc1 | -5% | 0.73
O=C(Cc1cccnc1)NC1CCN(c2cnsn2)CC1 | -11% | 1.47
CC[C@H](C)N(Cc1cc2ccc(F)cc2[nH]c1=O)C1CCCC1 | -12% | 2.18
O=C(CCCc1ccccc1)Nc1n[nH]c([C@@H]2CCCO2)n1 | -10% | 1.53
CCn1c(C)cc(=O)c2cc(C(=O)Nc3ccc(OC)cc3)ccc21 | -5% | 0.54
CC(C)COc1ccc(S(=O)(=O)Nc2cnn(C)c(=O)c2)cc1 | 1% | -0.14
C[C@@H]1[C@@H](c2cccc(Cl)c2)OCCN1C(=O)c1cccc(CC(=O)O)c1 | 2% | -0.25
CCc1nn(C)c(Cl)c1CN1CCN(c2ccc3nccn3n2)CC1 | -7% | 1.34
CC1(C)[C@@H]2CC[C@]13CS(=O)(=O)N(C(=O)c1ccco1)[C@@H]3C2 | -6% | 0.84
C#CCN1CCN(CN2C(=O)NC3(Cc4ccccc4C3)C2=O)CC1 | -25% | 2.92
COc1ccc(CCC(=O)N2CC[C@H](N(CCN3CCCCC3)C(=O)N(C)C)C2)cc1 | -3% | 0.35
COCCN(Cc1ccncc1)S(=O)(=O)N1CCCCC1 | 2% | -0.46
Cc1ccc([C@H]2CN(C(=O)c3ccccc3-c3nc[nH]n3)C[C@@H]2N(C)C)cc1 | -11% | 1.17
CC(C)COC(=O)Nc1cccc(NCc2nnc(C3CC3)n2C)c1 | -18% | 1.62
C/C(=C\c1ccccc1)c1nc2cccc(C)n2c1Nc1c(C)cccc1C | -10% | 1.09
Cc1ccc(-c2nc3ccccn3c2Nc2ccc3c(c2)OCCO3)s1 | -13% | 2.09
CC(C)n1cc(C(=O)N2CCc3ncccc3C2)cn1 | -10% | 1.05
O=S1(=O)CCCN(CC2(O)CCC2)CC1 | -10% | 1.47
Cc1ccncc1-c1cccc(-c2cc[nH]n2)c1 | -1% | 0.1

Structure (SMILES) | % Inhibition | Z score
CN(Cc1ccc(C#N)o1)[C@@H](C(N)=O)c1cccc(Br)c1 | -9% | 0.79
NC(=O)c1ccc(NC(=O)N2CCCC2CC(O)c2ccco2)cc1Cl (configuration not stated) | -10% | 1.17
CCc1c(C(=O)NCCc2cccnc2C)cnn1C1CCCC1 | 6% | -0.77
Cc1ccc(-n2ncc3c(N4CCc5ccccc5C4)ncnc32)cc1 | -2% | 0.3
CCCOc1ccc(CN2C(=O)N[C@@](C)(CCC)C2=O)cn1 | -10% | 0.91
Cc1nonc1CN(C)C(=O)c1c(CC2CCCC2)n(CCN(C)C)c(C)cc1=O | -4% | 0.52
OCc1cccc(NCc2ncccc2C(F)(F)F)c1 | -5% | 0.61
COn1c(-c2ccc(C)cc2)c(Cl)c2cc(C#N)c(C#N)cc21 | -12% | 1.4
CCC(CC)(CNC(=O)C(C)(C)Cc1cnn[nH]1)OC | 4% | -0.7
O=C(NCCN1CCNC1=O)Nc1ccnn1C1CCCCC1 | -3% | 0.64
CNC(=O)c1cccc(CCNCc2cnc(C)n2-c2ccccc2)c1 | -2% | 0.26
CN(C)CCN(C(=O)Nc1ccc(C(C)(C)C)cc1)C1CCOCC1 | 3% | -0.58
Cc1c(Cl)cccc1NC(=O)N1CCCn2nc(-c3cccn3C)cc21 | -14% | 1.8
CC[C@@](C)(COc1ncccc1Cl)NC(=O)Nc1ccc(OC)cc1C | 10% | -1.16
COCCN(Cc1ccoc1)S(C)(=O)=O | -12% | 1.54
NC(=O)Nc1ccc(NC(=O)c2cc3c(s2)CCCCC3)cc1 | -2% | 0.3
CC(C)/C=C/CN(C)CC1(CO)CCOCC1 | -7% | 1.17
CC(C)(C)NC(=O)CCC1CCCCC1 | -21% | 3.34
